Laboratory results from PubChem BioAssay (NCI).
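Dose response: 5 concentrations. Exposure: 48 h. Format: 96-well plates. Endpoint: linear interpolation; highest concentration if not reached. The concentration for 50% growth inhibition is given as GI50. At the TGI there is no net growth.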

test system: NCI-H322M lung; test: NCI-60 cell line screen, 48 h

`COC1C(O)C(n2ncc3c(SC)nc(SC)nc32)OC1C(O)CO` (stereo not drawn) and `Cn1cnc([N+](=O)[O-])c1Sc1nc(N)nc2c1ncn2C1CC(O)C(CO)O1` (stereo not drawn) cannot be ordered by TGI: > 100 µM for the first, > 100 µM for the second.

`Cc1cccc(C)c1NC(=O)C1C(=O)N(c2c(C)cccc2C)C(=O)/C1=N\N` (stereo not drawn) and `Nc1c(C(=O)Nc2cccc(F)c2)sc2nc3c(cc12)C(=O)CCC3` cannot be ordered by TGI: > 100 µM for the first, > 100 µM for the second.

`CC(=O)OCC1OC(n2c(-c3ccccc3)c(C(C)=O)c(-c3cccc4ccccc34)c(C#N)c2=S)C(OC(C)=O)C(OC(C)=O)C1OC(C)=O` (stereo not drawn) and `O=C(COc1cc(O)c2c(=O)cc(-c3ccccc3)oc2c1)Nc1ccccc1C(F)(F)F` cannot be ordered by TGI: > 100 µM for the first, > 100 µM for the second.

`O=C(c1ccccc1)c1ccc2[nH]c(-c3c(Cl)c(Cl)c(Cl)c(Cl)c3C(=O)N/N=C/c3cccc(Oc4ccccc4)c3)nc2c1` and `CC(C)(C)c1cc(-n2c(-c3ccc(Cl)cc3)nc3cc(C(=O)Nc4ccc(Cl)cc4)ccc32)n[nH]1` cannot be ordered by TGI: > 100 µM for the first, > 100 µM for the second.

Compared with `CC(C)=CCC/C(C)=C/CC/C(C)=C/CC/C(C)=C/CC/C(C)=C/CC/C(C)=C/CC/C(C)=C/CC/C(C)=C/CC/C(C)=C/CO`, `CC(C)=CC(Cc1ccccc1)S(=O)(=O)c1nc2ccccc2s1` (stereo not drawn) is lower in TGI: > 100 µM for the first, 40.4 µM for the second.

`Cc1nnc(-c2cccc(-c3ccc(C(=O)NCC4CC4)cc3)c2)o1` and `COc1ccc(Cc2nnc(Nc3ccc(Br)cc3)[nH]c2=O)cc1OC` cannot be ordered by TGI: > 25 µM for the first, > 100 µM for the second.

For `COc1cc(NCCCN=C(N)NC(N)=NC(C)C)c2ncccc2c1`, the TGI was 58.5 µM.

Going from `Nc1c(C(=O)Nc2cccc(F)c2)sc2nc3c(cc12)C(=O)CCC3` to `O=C(COc1cc(O)c2c(=O)cc(-c3ccccc3)oc2c1)Nc1ccccc1C(F)(F)F`, the GI50 rises from 0.569 µM to > 100 µM.

`Cc1nnc(-c2cccc(-c3ccc(C(=O)NCC4CC4)cc3)c2)o1` and `CC(C)(C)c1cc(-n2c(-c3ccc(Cl)cc3)nc3cc(C(=O)Nc4ccc(Cl)cc4)ccc32)n[nH]1` cannot be ordered by GI50: > 25 µM for the first, 40.5 µM for the second.

With `COc1cc(NCCCN=C(N)NC(N)=NC(C)C)c2ncccc2c1` the GI50 was 2.87 µM.
